Experimental data as given in PubChem BioAssay (NCATS).
The inconclusive results got no clear call from the source; some entries with a clear call stand among them for comparison. Where the call is inconclusive, the potency comes from a doubtful curve fit. The source made the active and inactive calls. Calls follow the shape of the dose curve; as a rule, active = well fitted cell-killing curve with a large enough effect; inconclusive = small, poorly fitted or top-dose-only effect; inactive = flat fitted curve, though single readings scatter.

Assay: qHTS of pediatric cancer cell lines to identify multiple opportunities for drug repurposing: Primary screen for DAOY cells (AID 1347090); also: nearly all actives have a fitted effect of over 55% in size
Details: DAOY medulloblastoma viability, CellTiter-Glo luminescence, 48 h; series mostly up to 46 µM
How it was run: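 Viability measured as metabolically active cells via CellTiter-Glo luminescence following 48 hours of compound exposure, 11-point dilutions in confirmatory testing. 500-1,000 cells/well plated 5 hours before dosing; controls were DMSO and 2.3 µM bortezomib.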
Potency is read from the fitted curve at half-maximal effect; tags tell the direction and shape of the fitted curve.

Row | Structure (SMILES) | Potency
1 | Clc1ccc2nsnc2c1NC1=NCCN1 | inactive
2 | O=C(OCc1ccccc1)c1ccc(O)cc1 | inactive
3 | O=C(O)[C@@H](c1ccc(OCc2ccc3ccccc3n2)cc1)C1CCCC1 | inactive
4 | CC[N+](CC)(CC)CCOc1cccc(OCC[N+](CC)(CC)CC)c1OCC[N+](CC)(CC)CC | inactive
5 | COC(=O)C1=C(C)NC(C)=C(C(=O)OCC(C)C)C1c1ccccc1[N+](=O)[O-] (centres undefined) | inactive
6 | O=C(O)c1ccccc1C(=O)Nc1ccc(-c2ccccc2)cc1 | inactive
7 | O=C1NC(=O)C(=Cc2ccc(-c3ccc(F)cc3)o2)S1 | inconclusive: 23.5 µM [cytotoxic, single point]
8 | C[C@](N)(Cc1ccc(O)c(O)c1)C(=O)O | inconclusive: 23.5 µM [cytotoxic, partial curve]
9 | CC1(C)Cc2c(sc(NC(=S)NC(=O)c3ccccc3)c2C(=O)O)CO1 | inconclusive: 29.6 µM [cytotoxic, single point]
10 | COc1ccc([C@@H]2CC(=O)c3c(O)cc(O[C@@H]4O[C@H](CO[C@@H]5O[C@@H](C)[C@H](O)[C@@H](O)[C@@H]5O)[C@@H](O)[C@H](O)[C@@H]4O)cc3O2)cc1O | inconclusive: 18.7 µM [cytotoxic, partial curve, poor fit]
11 | c1ccc2[nH]c(-c3cscn3)nc2c1 | inconclusive: 9.35 µM [cytotoxic, full curve]
12 | Cc1[nH]c(=O)c(C#N)cc1-c1ccc2nccn2c1 | inconclusive: 29.6 µM [cytotoxic, partial curve]
13 | Cc1c(Nc2ncccc2C(=O)O)cccc1C(F)(F)F | inactive
14 | CC(O)(P(=O)(O)O)P(=O)(O)O | inactive
15 | CC(=O)Oc1cccc2c1C(=O)c1c(OC(C)=O)cc(C(=O)O)cc1C2=O | inconclusive: 33.5 µM [cytotoxic, single point]
16 | OCCC#Cc1nc(-c2ccc(F)cc2)c(-c2ccncc2)n1CCCc1ccccc1 | inconclusive: 23.5 µM [cytotoxic, partial curve, poor fit]
17 | CC(C)Cc1ccc(C(C)C(=O)O)cc1 (centres undefined) | inactive

Row | Structure (SMILES) | Potency
18 | COc1ccc(C2Sc3ccccc3N(CCN(C)C)C(=O)C2OC(C)=O)cc1 (centres undefined) | inconclusive: 23.5 µM [cytotoxic, single point]
19 | O=c1c(O)c(-c2ccc(O)c(O)c2)oc2cc(O)ccc12 | inconclusive: 23.5 µM [cytotoxic, partial curve]
20 | Cc1cc2c(s1)Nc1ccccc1N=C2N1CCN(C)CC1 | inactive
21 | CC1(C)S[C@@H]2[C@H](NC(=O)Cc3ccccc3)C(=O)N2[C@H]1C(=O)O (tested in a mixture with another compound) | inactive
22 | COc1ccc(-c2coc3cc(O)cc(O)c3c2=O)cc1 | inactive
23 | CC(C)C[C@@H](C(=O)N[C@H](C(=O)OC1CCCC1)c1ccccc1)[C@H](O)C(=O)NO | inconclusive: 14.8 µM [cytotoxic, partial curve]
24 | CCC(C(=O)O)c1ccc(N2Cc3ccccc3C2=O)cc1 (centres undefined) | inactive
25 | OC[C@H]1O[C@H](O[C@]2(CCl)O[C@H](CCl)[C@@H](O)[C@@H]2O)[C@H](O)[C@@H](O)[C@H]1Cl | inactive
26 | CCCCCCCCCCCC(=O)[O][Sn]([CH2]CCC)([CH2]CCC)[O]C(=O)CCCCCCCCCCC | inactive
27 | C#CC1(O)CC[C@H]2[C@@H]3CCC4=CCCC[C@@H]4[C@H]3CC[C@@]21C (some centres undefined) | inconclusive: 26.6 µM [cytotoxic, single point]
28 | Cc1ccnc2c1NC(=O)c1cccnc1N2C1CC1 | inconclusive: 37.2 µM [cytotoxic, single point]
29 | CCCCCNC(=O)N1CCC(CN(Cc2ccc(Cl)cc2)Cc2ccc([N+](=O)[O-])s2)C1 (centres undefined) | inconclusive: 29.6 µM [cytotoxic, single point]
30 | OC1(c2ccc(Cl)cc2)CCNCC1 | inactive
31 | CNS(=O)(=O)CCc1ccc2[nH]cc(C3CCN(C)CC3)c2c1 | inconclusive: 0.187 µM [cytotoxic, full curve]
32 | CC1(C)OC2=C(C(=O)c3ccccc3C2=O)[C@H](NCc2ccccc2)[C@H]1O | active: 5.9 µM
33 | CC(C(=O)O)c1ccc(-c2ccccc2)c(F)c1 (centres undefined) | inconclusive: 18.7 µM [cytotoxic, partial curve]
34 | CCc1ccc(OCc2ccccc2C(=O)Nc2ccc3nc(C)cc(N)c3c2)cc1 | active: 11.8 µM
